# Test results taken from the supplement of paper PMC8728848.
# The other results are listed elsewhere or left out.
# B1: Pwp4 (Candida glabrata) (protein)
# chain: MGSSHHHHHHSSGLVPRGSHMASVGNPITVSNVCSFPKNWHRTAGFRALTARLGIGIQSDSYKELLNYPGTFQLTTQQSSTTKPNFQISGLVGNIYGLTIVPSYLLVELTGYFVPPVSGEYTFSLEGSDDAAIIFIANPSTFKCGHVEDWPTAYDNDVTVTESIHATRTIYMIEGVAYPIRIAYYNGLSLGKLQASFTDPEGVKRVDWNGYIWRYDSCDTCSYV
# Legend:
# Assay in all cases: glycan array binding signal (z-score within array); higher = stronger binding
# Conditions in all cases: glycan notation: IUPAC condensed, linker removed
# [1] = target: Gal(a1-3)Gal(b1-4)GlcNAc(b1-2)Man
# Outline: (§1)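 Arrays were curated from the Consortium for Functional Glycomics database, 3228 in total, and kept only where the protein sequence was available. Binding is expressed as a within-array Z-score. This score was averaged across arrays of the same protein sequence at different concentrations or buffers and across linkers, and negative values can be read as non-binding.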
# [2] = target: Gal(a1-3)Gal(b1-4)GlcNAc(b1-2)Man(a1-3)[Gal(a1-3)Gal(b1-4)GlcNAc(b1-2)Man(a1-6)]Man(b1-4)GlcNAc(b1-4)GlcNAc
# Outline: as §1
# [3] = target: Gal(a1-3)Gal(b1-4)GlcNAc(b1-3)GalNAc
# Outline: as §1
# [4] = target: Gal(a1-3)Gal(b1-4)GlcNAc(b1-6)GalNAc
# Outline: as §1
# [5] = target: Gal(a1-3)Gal(b1-4)[Fuc(a1-3)]GlcNAc
# Outline: as §1
# [6] = target: Gal(a1-3)Gal(b1-4)[Fuc(a1-3)]GlcNAc(b1-2)Man(a1-3)[Gal(a1-3)Gal(b1-4)[Fuc(a1-3)]GlcNAc(b1-2)Man(a1-6)]Man(b1-4)GlcNAc(b1-4)GlcNAc
# Outline: as §1
# [7] = target: Gal(a1-3)GalNAc
# Outline: as §1
# [8] = target: Gal(a1-3)[Gal(a1-4)]Gal(b1-4)GlcNAc
# Outline: as §1
# [9] = target: Gal(a1-4)Gal(b1-3)GlcNAc(b1-2)Man(a1-3)[Gal(a1-4)Gal(b1-3)GlcNAc(b1-2)Man(a1-6)]Man(b1-4)GlcNAc(b1-4)GlcNAc
# Outline: as §1
# [10] = target: Gal(a1-4)Gal(b1-4)Glc
# Outline: as §1
# [11] = target: Gal(a1-4)Gal(b1-4)GlcNAc
# Outline: as §1
# [12] = target: Gal(a1-4)Gal(b1-4)GlcNAc(b1-2)Man(a1-3)[Gal(a1-4)Gal(b1-4)GlcNAc(b1-2)Man(a1-6)]Man(b1-4)GlcNAc(b1-4)GlcNAc
# Outline: as §1
# [13] = target: Gal(a1-4)Gal(b1-4)GlcNAc(b1-3)Gal(b1-4)Glc
# Outline: as §1
# [14] = target: Gal(a1-4)GlcNAc
# Outline: as §1
# [15] = target: Gal(a1-6)Glc
# Outline: as §1
# [16] = target: Gal(b1-2)Gal
# Outline: as §1
# [17] = target: Gal(b1-3)Gal
# Outline: as §1
# [18] = target: Gal(b1-3)Gal(b1-4)GlcNAc
# Outline: as §1
# [19] = target: Gal(b1-3)GalNAc
# Outline: as §1
# [20] = target: Gal(b1-3)GalNAc(a1-3)[Fuc(a1-2)]Gal(b1-4)Glc
# Outline: as §1
# [21] = target: Gal(b1-3)GalNAc(a1-3)[Fuc(a1-2)]Gal(b1-4)GlcNAc
# Outline: as §1
# [22] = target: Gal(b1-3)GalNAc(b1-3)Gal
# Outline: as §1
# [23] = target: Gal(b1-3)GalNAc(b1-3)Gal(a1-4)Gal(b1-4)Glc
# Outline: as §1
# [24] = target: Gal(b1-3)GalNAc(b1-4)Gal(b1-4)Glc
# Outline: as §1
# [25] = target: Gal(b1-3)GalNAc(b1-4)[Neu5Ac(a2-3)]Gal(b1-4)Glc
# Outline: as §1
# [26] = target: Gal(b1-3)GlcNAc
# Outline: as §1
# [27] = target: Gal(b1-3)GlcNAc(a1-3)Gal(b1-4)GlcNAc
# Outline: as §1
# [28] = target: Gal(b1-3)GlcNAc(a1-6)Gal(b1-4)GlcNAc
# Outline: as §1
# [29] = target: Gal(b1-3)GlcNAc(b1-2)Man
# Outline: as §1
# [30] = target: Gal(b1-3)GlcNAc(b1-2)Man(a1-3)[Gal(b1-3)GlcNAc(b1-2)Man(a1-6)]Man(b1-4)GlcNAc(b1-4)GlcNAc
# Outline: as §1
# [31] = target: Gal(b1-3)GlcNAc(b1-2)Man(a1-3)[Gal(b1-3)GlcNAc(b1-2)Man(a1-6)]Man(b1-4)GlcNAc(b1-4)[Fuc(a1-6)]GlcNAc
# Outline: as §1
# [32] = target: Gal(b1-3)GlcNAc(b1-2)Man(a1-3)[GlcNAc(b1-4)][Gal(b1-3)GlcNAc(b1-2)Man(a1-6)]Man(b1-4)GlcNAc(b1-4)GlcNAc
# Outline: as §1
# [33] = target: Gal(b1-3)GlcNAc(b1-2)[Gal(b1-3)GlcNAc(b1-6)]Man(a1-6)[Gal(b1-3)GlcNAc(b1-2)Man(a1-3)]Man(b1-4)GlcNAc(b1-4)GlcNAc
# Outline: as §1
# [34] = target: Gal(b1-3)GlcNAc(b1-3)Gal(b1-3)GlcNAc
# Outline: as §1
# [35] = target: Gal(b1-3)GlcNAc(b1-3)Gal(b1-4)Glc
# Outline: as §1
# [36] = target: Gal(b1-3)GlcNAc(b1-3)Gal(b1-4)GlcNAc
# Outline: as §1
# [37] = target: Gal(b1-3)GlcNAc(b1-3)Gal(b1-4)GlcNAc(b1-2)Man(a1-3)[Gal(b1-3)GlcNAc(b1-3)Gal(b1-4)GlcNAc(b1-2)Man(a1-6)]Man(b1-4)GlcNAc(b1-4)GlcNAc
# Outline: as §1
# [38] = target: Gal(b1-3)GlcNAc(b1-3)Gal(b1-4)GlcNAc(b1-2)[Gal(b1-3)GlcNAc(b1-3)Gal(b1-4)GlcNAc(b1-6)]Man(a1-6)[Gal(b1-3)GlcNAc(b1-3)Gal(b1-4)GlcNAc(b1-2)Man(a1-3)]Man(b1-4)GlcNAc(b1-4)[Fuc(a1-6)]GlcNAc
# Outline: as §1
# [39] = target: Gal(b1-3)GlcNAc(b1-3)Gal(b1-4)GlcNAc(b1-3)Gal(b1-4)GlcNAc(b1-2)[Gal(b1-3)GlcNAc(b1-3)Gal(b1-4)GlcNAc(b1-3)Gal(b1-4)GlcNAc(b1-6)]Man(a1-6)[Gal(b1-3)GlcNAc(b1-3)Gal(b1-4)GlcNAc(b1-3)Gal(b1-4)GlcNAc(b1-2)Man(a1-3)]Man(b1-4)GlcNAc(b1-4)[Fuc(a1-6)]GlcNAc
# Outline: as §1
# [40] = target: Gal(b1-3)GlcNAc(b1-3)Gal(b1-4)GlcNAc(b1-6)[Gal(b1-3)GlcNAc(b1-3)]Gal(b1-4)Glc
# Outline: as §1
# [41] = target: Gal(b1-3)GlcNAc(b1-3)Gal(b1-4)[Fuc(a1-3)]GlcNAc
# Outline: as §1
# [42] = target: Gal(b1-3)GlcNAc(b1-3)Gal(b1-4)[Fuc(a1-3)]GlcNAc(b1-6)[Gal(b1-3)GlcNAc(b1-3)]Gal(b1-4)Glc
# Outline: as §1
# [43] = target: Gal(b1-3)GlcNAc(b1-3)GalNAc
# Outline: as §1
# [44] = target: Gal(b1-3)GlcNAc(b1-6)Gal(b1-4)GlcNAc
# Outline: as §1
# [45] = target: Gal(b1-3)GlcNAc(b1-6)GalNAc
# Outline: as §1
binder,measurement,setting,value
B1,glycan array binding signal (z-score),[1],-0.241
same,glycan array binding signal (z-score),[2],-0.024
same,glycan array binding signal (z-score),[3],-0.041
same,glycan array binding signal (z-score),[4],-0.355
same,glycan array binding signal (z-score),[5],-0.426
same,glycan array binding signal (z-score),[6],0.161
same,glycan array binding signal (z-score),[7],-0.271
same,glycan array binding signal (z-score),[8],-0.692
same,glycan array binding signal (z-score),[9],0.433
same,glycan array binding signal (z-score),[10],-0.45
same,glycan array binding signal (z-score),[11],-0.508
same,glycan array binding signal (z-score),[12],0.209
same,glycan array binding signal (z-score),[13],-0.18
same,glycan array binding signal (z-score),[14],-0.478
same,glycan array binding signal (z-score),[15],-0.251
same,glycan array binding signal (z-score),[16],-0.49
same,glycan array binding signal (z-score),[17],-0.411
same,glycan array binding signal (z-score),[18],-0.378
same,glycan array binding signal (z-score),[19],0.272
same,glycan array binding signal (z-score),[20],-0.297
same,glycan array binding signal (z-score),[21],-0.354
same,glycan array binding signal (z-score),[22],-0.51
same,glycan array binding signal (z-score),[23],-0.54
same,glycan array binding signal (z-score),[24],0.554
same,glycan array binding signal (z-score),[25],-0.574
same,glycan array binding signal (z-score),[26],-0.537
same,glycan array binding signal (z-score),[27],0.711
same,glycan array binding signal (z-score),[28],2.97
same,glycan array binding signal (z-score),[29],-0.297
same,glycan array binding signal (z-score),[30],0.367
same,glycan array binding signal (z-score),[31],-0.447
same,glycan array binding signal (z-score),[32],-0.351
same,glycan array binding signal (z-score),[33],-0.162
same,glycan array binding signal (z-score),[34],-0.51
same,glycan array binding signal (z-score),[35],-0.337
same,glycan array binding signal (z-score),[36],-0.356
same,glycan array binding signal (z-score),[37],-0.165
same,glycan array binding signal (z-score),[38],5.18
same,glycan array binding signal (z-score),[39],2.9
same,glycan array binding signal (z-score),[40],-0.293
same,glycan array binding signal (z-score),[41],-0.333
same,glycan array binding signal (z-score),[42],-0.578
same,glycan array binding signal (z-score),[43],-0.673
same,glycan array binding signal (z-score),[44],-0.372
same,glycan array binding signal (z-score),[45],0.773
